Results as given in PMC7205891.
Like-named read-outs stand apart in the source and are kept apart here. No constants are given. Whether binding was seen depends on the method and setting. In cells and extracts the contact can be indirect. Some binding calls cover weakened binding; strength is not graded here.

Amino acid sequences for entries named in this document (tags omitted).
UniProt Q99873: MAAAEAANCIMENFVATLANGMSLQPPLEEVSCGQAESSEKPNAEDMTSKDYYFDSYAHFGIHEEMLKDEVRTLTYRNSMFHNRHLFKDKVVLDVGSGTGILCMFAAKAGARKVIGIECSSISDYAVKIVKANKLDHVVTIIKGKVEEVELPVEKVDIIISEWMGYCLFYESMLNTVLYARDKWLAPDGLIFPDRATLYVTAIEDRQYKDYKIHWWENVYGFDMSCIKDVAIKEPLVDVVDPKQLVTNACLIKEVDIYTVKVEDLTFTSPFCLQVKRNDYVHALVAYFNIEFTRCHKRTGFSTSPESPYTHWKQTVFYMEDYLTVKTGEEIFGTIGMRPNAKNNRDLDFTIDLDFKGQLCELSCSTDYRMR

Columns and labels:
[1] = target: Flag-tagged UBAP2L Δ131–190 (lacking the RGG motif) (human) (UniProt Q14157); assay: co-IP; HEK293 cells expressing Flag-UBAP2L wild type or mutants; lysis in 0.3% CHAPS, 40 mM HEPES pH 7.4, 150 mM NaCl; IP with Flag antibody and protein G Sepharose, 4 °C; WB of endogenous proteins; no RNase A; with/without AS (500 μM, 1 h), stress recovery, PRMT1-siRNA, HA-PRMT1, Adox, UBAP2L knock-down; some lanes with EE (2 mM EDTA, 2.5 mM EGTA) or 5 mM MgCl2 in the lysis buffer
[2] = target: Flag-tagged UBAP2L R187A (human) (UniProt Q14157); assay: as above
[3] = target: Flag-tagged UBAP2L Δ495–526 (lacking the DUF3695 domain) (human) (UniProt Q14157); assay: as above
[4] = target: Flag-tagged UBAP2L R190A (human) (UniProt Q14157); assay: as above
[5] = target: Flag-tagged UBAP2L with deleted amino acids 2–130 (lacking the UBA domain) (human) (UniProt Q14157); assay: as above
[6] = target: Flag-tagged UBAP2L R_(187+190)A (human) (UniProt Q14157); assay: as above
[7] = target: Flag-tagged full-length human UBAP2L, wild type (human) (UniProt Q14157); assay: as above
[8] = target: Flag-tagged UBAP2L Δ239–290 (lacking the two putative RNA-binding regions) (human) (UniProt Q14157); assay: as above
[9] = target: Flag-tagged UBAP2L Δ131–190 (lacking the RGG motif) (human) (UniProt Q14157); assay: as above; remark: listed apart in the source
[10] = target: Flag-tagged UBAP2L Δ495–526 (lacking the DUF3695 domain) (human) (UniProt Q14157); assay: as above; remark: listed apart in the source
[11] = target: Flag-tagged UBAP2L with deleted amino acids 2–130 (lacking the UBA domain) (human) (UniProt Q14157); assay: as above; remark: listed apart in the source
[12] = target: Flag-tagged full-length human UBAP2L, wild type (human) (UniProt Q14157); assay: as above; remark: listed apart in the source
[13] = target: Flag-tagged UBAP2L Δ239–290 (lacking the two putative RNA-binding regions) (human) (UniProt Q14157); assay: as above; remark: listed apart in the source
[14] = target: Flag-tagged full-length human UBAP2L, wild type (human) (UniProt Q14157); assay: condition: only with RNase A (40 μg/ml) in the lysis buffer; co-IP; HEK293 cells expressing Flag-UBAP2L, AS-treated; RNase A (40 μg/ml) in the lysis buffer, alone, with EE (2 mM EDTA, 2.5 mM EGTA), or with EE and 5 mM MgCl2; Flag precipitates analysed by WB
[15] = target: Flag-tagged full-length human UBAP2L, wild type (human) (UniProt Q14157); assay: condition: only with RNase A (40 μg/ml) and 5 mM MgCl2 in the lysis buffer; co-IP; HEK293 cells expressing Flag-UBAP2L, AS-treated; RNase A (40 μg/ml) and 5 mM MgCl2 in the lysis buffer, no EE; Flag precipitates analysed by WB
[16] = target: endogenous UBAP2L (human (endogenous in HEK293)) (UniProt Q14157); assay: co-IP; endogenous UBAP2L immunoprecipitated from normal HEK293 cell extracts, WB of G3BP2 in the precipitates

| binding [1] | binding [2] | binding [3] | binding [4] | binding [5] | binding [6] | binding [7] | binding [8] | binding [9] | binding [10] | binding [11] | binding [12] | binding [13] | binding [14] | binding [15] | binding [16] | Molecule |
| --- | --- | --- | --- | --- | --- | --- | --- | --- | --- | --- | --- | --- | --- | --- | --- | --- |
| no binding | binds | binds | binds | binds | binds | binds | binds | – | – | – | – | – | – | – | – | protein arginine methyltransferase PRMT1, endogenous (from UniProt Q99873 1-371) (enzyme) |
| – | – | – | – | – | – | – | – | no binding | no binding | binds | binds | binds | no binding | no binding | binds | ras GTPase-activating protein-binding protein 2 (G3BP2), endogenous (protein, UniProt Q9UN86 1-482) MVMEKPSPLLVGREFVRQYYTLLNKAPEYLHRFYGRNSSYVHGGVDASGKPQEAVYGQNDIHHKVLSLNFSECHTKIRHVDAHATLSDGVVVQVMGLLSNSGQPERKFMQTFVLAPEGSVPNKFYVHNDMFRYEDEVFGDSEPELDEESEDEVEEEQEERQPSPEPVQENANSGYYEAHPVTNGIEEPLEESSHEPEPEPESETKTEELKPQVEEKNLEELEEKSTTPPPAEPVSLPQEPPKAFSWASVTSKNLPPSGTVSSSGIPPHVKAPVSQPRVEAKPEVQSQPPRVREQRPRERPGFPPRGPRPGRGDMEQNDSDNRRIIRYPDSHQLFVGNLPHDIDENELKEFFMSFGNVVELRINTKGVGGKLPNFGFVVFDDSEPVQRILIAKPIMFRGEVRLNVEEKKTRAARERETRGGGDDRRDIRRNDRGPGGPRGIVGGGMMRDRDGRGPPPRGGMAQKLGSGRGTGQMEGRFTGQRR |
